# Experimental data published in article PMC4336329 (PLoS ONE, 2015).
# Hit rate of the full screen: of about 310,000 compounds, about 2,200 (0.71%) showed an effect of 50% or more. Effects have a minus sign here. The list shows a part of the results.
# Target: human ether-à-go-go-related gene (hERG) potassium channel (human, UniProt Q12809)
# Assay: primary screen, population patch clamp on CHO cells stably expressing hERG
# Sequence of human ether-à-go-go-related gene (hERG) potassium channel (Q12809 whole entry, looked up): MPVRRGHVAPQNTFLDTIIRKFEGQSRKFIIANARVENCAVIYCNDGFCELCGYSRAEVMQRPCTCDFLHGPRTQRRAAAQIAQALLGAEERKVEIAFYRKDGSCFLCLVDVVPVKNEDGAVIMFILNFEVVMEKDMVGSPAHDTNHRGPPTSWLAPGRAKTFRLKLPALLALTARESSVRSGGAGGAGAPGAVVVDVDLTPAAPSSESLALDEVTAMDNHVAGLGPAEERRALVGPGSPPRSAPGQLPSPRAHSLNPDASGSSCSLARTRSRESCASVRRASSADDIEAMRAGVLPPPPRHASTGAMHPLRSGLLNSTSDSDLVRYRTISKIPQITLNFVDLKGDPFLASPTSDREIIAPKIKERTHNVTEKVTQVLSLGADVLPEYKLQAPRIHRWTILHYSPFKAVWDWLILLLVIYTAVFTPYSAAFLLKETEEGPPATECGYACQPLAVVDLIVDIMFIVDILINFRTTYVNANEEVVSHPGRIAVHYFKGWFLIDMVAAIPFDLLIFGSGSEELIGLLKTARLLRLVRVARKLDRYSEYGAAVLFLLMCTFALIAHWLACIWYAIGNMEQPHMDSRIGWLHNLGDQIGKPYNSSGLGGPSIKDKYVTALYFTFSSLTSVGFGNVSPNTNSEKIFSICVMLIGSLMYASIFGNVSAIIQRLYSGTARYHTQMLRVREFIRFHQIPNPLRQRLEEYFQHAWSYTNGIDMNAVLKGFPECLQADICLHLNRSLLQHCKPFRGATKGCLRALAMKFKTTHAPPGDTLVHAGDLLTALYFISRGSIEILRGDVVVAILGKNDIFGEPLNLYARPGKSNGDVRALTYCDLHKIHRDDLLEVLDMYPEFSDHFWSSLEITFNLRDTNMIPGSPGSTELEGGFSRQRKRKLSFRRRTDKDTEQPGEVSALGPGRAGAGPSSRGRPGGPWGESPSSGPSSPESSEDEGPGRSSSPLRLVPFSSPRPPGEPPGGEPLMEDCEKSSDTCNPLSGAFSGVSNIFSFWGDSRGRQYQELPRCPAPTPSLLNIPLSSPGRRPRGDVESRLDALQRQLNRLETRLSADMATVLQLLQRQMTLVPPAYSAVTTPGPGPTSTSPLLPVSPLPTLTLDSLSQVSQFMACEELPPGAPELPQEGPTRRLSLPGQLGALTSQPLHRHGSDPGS
row,Structure (SMILES),"hERG current change (%, negative = inhibition) at 1uM"
1,COCCCNC(=O)Cn1nnc(-c2ccc(NC(=O)c3ccccc3OC)cc2)n1,4.37%
2,O=C(NCCN1CCCCCC1)c1ccc(N2CCCC2=O)cc1,2%
3,COc1ccc(Br)cc1S(=O)(=O)N(CC(=O)N1CCN(C)CC1)c1ccccc1,4.85%
4,CC(C)(C)c1ccc(C(=O)Nc2ccc(C(=O)N3CCOCC3)cc2)cc1,4.61%
5,O=C(CCCN1C(=O)c2ccccc2C1=O)N1CCC(c2ccccc2)C1 (centres unmarked),-16.5%
6,CCCCOc1ccc(C(=O)C(CN2CCOCC2)c2ccccc2)cc1 (centres unmarked),9.92%
7,CC1=C(C(=O)NC2CCCCC2C)C2(CCC(C)CC2)OC1=O (centres unmarked),2.07%
8,COc1c(C)cc(Br)cc1C(=O)Nc1cccc(-c2nc3ncccc3o2)c1,-7.42%
9,O=C(NCC1CCCO1)c1cc2c([nH]c3ccccc32)c(-c2ccc(F)cc2)n1 (centres unmarked),9.15%
10,Cc1ccc(-n2c(SCC(N)=O)nnc2-c2ccccn2)cc1C,13%
11,Cc1cccc(-c2noc(C(C)NC(=O)c3ccco3)n2)c1 (centres unmarked),9.37%
12,O=C(COC(=O)c1cc(=O)[nH]c(=O)[nH]1)Nc1cccc(S(=O)(=O)N2CCCCC2)c1,9.85%
13,O=C(O)c1ccc(Nc2cccc(F)c2)c([N+](=O)[O-])c1,22.2%
14,CCOCCCNS(=O)(=O)c1ccc(Br)cc1,9.76%
15,COc1cc(C)c(S(=O)(=O)N2CCOCC2)cc1C(C)C,7.69%
16,CCOC(=O)c1c(NC(=O)CSc2nc3ccccc3c(=O)n2-c2ccc(F)cc2)sc(C(C)=O)c1C,10.3%
17,Cc1ccc(S(=O)(=O)CCSc2nccn2C)cc1,2.46%
18,COc1cccc(C(O)c2cnc(C(C)C)n2C)c1 (centres unmarked),9.67%
19,Cc1nccc2c1[nH]c1ccccc12,10.2%
20,CCN(CC)S(=O)(=O)c1cccc(-c2n[nH]c(=S)n2/N=C/c2ccc(OC(F)F)cc2)c1,9.73%
21,Cc1cccc2c(=O)c(C(=O)NCc3cccs3)c[nH]c12,17.3%
22,CCNc1nc(-c2ccc(Cl)cc2)cs1,15.6%
23,CCOC(=O)c1cccc(S(=O)(=O)N(CCO)Cc2cc3cc(OC)ccc3[nH]c2=O)c1,4.92%

row,Structure (SMILES),"hERG current change (%, negative = inhibition) at 1uM"
1,O=C(Nc1cccnc1)c1scc2c1OCCO2,11.7%
2,Cc1nc(N2CCN(S(=O)(=O)c3ccccc3C#N)CC2)c2c(-c3ccccc3)csc2n1,1.14%
3,COc1ccnc(CS(=O)c2nc3cc(OC(F)F)ccc3[n-]2)c1OC.[Na+] (centres unmarked),-22.2%
4,C/C(Cc1ccccc1)=N\NC(=O)CNC(=O)COc1ccccc1,9.94%
5,O=C(NCC1CCCO1)c1cccc(F)c1 (centres unmarked),8.93%
6,CCCN1CCN(C(=O)CN2C(=O)CC(C)(C)S(=O)(=O)c3ccccc32)CC1,14.5%
7,COC(=O)c1ccc(-c2ccc(/C=N/NC(=O)Cc3nnc(N)s3)o2)cc1,11.1%
8,O=C(C1Cc2ccccc2CN1S(=O)(=O)c1ccc(F)cc1)N1CCCCC1 (centres unmarked),0.186%
9,Clc1cccc(Cl)c1Cn1cnc2c(N3CCCCCC3)ncnc21,3.81%
10,CC1Oc2ccccc2N(CC(=O)c2ccccc2)C1=O (centres unmarked),-0.683%
11,Cn1c(SCc2nc3ccccc3[nH]2)nnc1-c1cccs1,-8.39%
12,Cc1nc(C(F)(F)F)nc(Nc2ccc(Br)cc2)c1C#N,13.1%
13,CN(CC(=O)NCc1ccncc1)S(=O)(=O)c1ccc2ccccc2c1,2.12%
14,CCCCC(=O)Nc1ccc(NC(=O)C2CC2)nc1,8.39%
15,Cc1ccn2cc(-c3cccc(NC(=O)c4cccs4)c3)nc2c1,-2.71%
16,Cc1cc(NC(=O)CSc2nc(=O)n3cc(Cl)ccc3n2)no1,8.14%
17,CC1=Nc2ccc(Br)cc2C(c2ccccc2)N1CC(=O)NN (centres unmarked),7.63%
18,COc1ccc(-n2ncc3c(=O)n(CC(=O)N4c5ccccc5CC4C)cnc32)cc1 (centres unmarked),0.506%
19,O=C(O)CC(NC(=O)C(c1ccccc1)c1ccccc1)c1ccco1 (centres unmarked),14.6%
20,Cc1c(OCc2ccc([N+](=O)[O-])cc2)ccc2c3c(c(=O)oc12)CCC3,3.74%
21,Cc1ccccc1-n1c(SCc2csc(Nc3ccccc3)n2)nnc1-c1cccnc1,-4.16%
22,COc1ccc(C/C(C)=N/NC(=O)c2cc(C)oc2C)cc1,13.8%
23,CCCS(=O)(=O)C/C(N)=N/OC(=O)c1ccccc1Cl,10.2%

row,Structure (SMILES),"hERG current change (%, negative = inhibition) at 1uM"
1,Cc1ccc(NC(=O)COC(=O)/C=C/c2ccc(Br)o2)cc1S(=O)(=O)N(C)C,12.1%
2,C=CCSc1nnc(NC(=O)CSc2nc3ccccc3[nH]2)s1,11.8%
3,COc1cccc(CC(=S)N2CCOCC2)c1,2.51%
4,C/C(=N\O)C1CC(CC(=O)O)C1(C)C (centres unmarked),7.56%
5,CC[C@@H]1[C@H]2CCCC(=O)N3CC[C@@H](C[C@@H]1Nc1ccccc1)[C@@H]23,7.12%
6,CCOC(=O)Cn1nnnc1CN(Cc1ccccc1)Cc1cc2cc(CC)ccc2[nH]c1=O,0.922%
7,COc1ccc(-n2nc3c(c2NC(=O)C2CCCC2)CS(=O)C3)cc1 (centres unmarked),4.73%
8,O=C(OCC(=O)N1CCCC1)c1ccc(NS(=O)(=O)c2cccs2)cc1O,11.4%
9,O=C(NNC(=O)C1CCN(S(=O)(=O)c2cccc(Cl)c2)CC1)C1CC1,5.65%
10,COc1ccc(-c2csc(NC(C)=O)n2)cc1OC,8.54%
11,Cn1c(SCC(=O)NCc2ccco2)nnc1-c1cccs1,8.99%
12,Cc1c(S(=O)(=O)Nc2cc(Cl)ccc2Cl)c(=O)n(C)c(=O)n1C,7.07%
13,O=C(CSc1nc2c(sc3ccccc32)c(=O)n1CCO)NCC1CCCO1 (centres unmarked),-2.95%
14,Cc1cccc(NNC(=S)Nc2c(C)cccc2C)c1,8.49%
15,COc1ccc(C2NC(=O)NC(C)=C2C(C)=O)cc1 (centres unmarked),11.4%
16,CC1CN(Cc2nc3c(c(=O)n(C)c(=O)n3C)n2CCCc2ccccc2)CC(C)O1 (centres unmarked),-1.5%
17,CCOP(=O)(OCC)C(NC(=O)c1cc([N+](=O)[O-])cc([N+](=O)[O-])c1)C(F)(F)F (centres unmarked),8.16%
18,CCC(C)(C)n1nnnc1C(c1ccccc1)N1CCN(C2CCCC2)CC1 (centres unmarked),6.06%
19,CCOC(=O)c1c(C)[nH]c(C)c1C(=O)CN1C(=O)NC2(CCCCCC2)C1=O,11.4%
20,CCOC(=O)CCCSc1nc(-c2ccc3c(c2)OCO3)cc(C(F)(F)F)c1C#N,6.95%
21,CN(C)C(=O)N1CCN(C(=O)c2ccccc2Sc2ccccc2C#N)CC1,1.19%
22,Cc1c(CC(=O)N2CCC(C(=O)O)CC2)c(=O)oc2cc3c(cc12)CCC1(CCCCC1)O3,3.15%
23,Cc1ccc(C(=O)Cn2cncn2)cc1.Cl,7.78%

row,Structure (SMILES),"hERG current change (%, negative = inhibition) at 1uM"
1,COc1ccc(Cl)cc1NC(=O)CN(C)S(=O)(=O)c1cccs1,8.11%
2,O=C(c1ccco1)N1CCN(C2CC(=O)N(c3ccc(C(F)(F)F)cc3)C2=O)CC1 (centres unmarked),5.64%
3,CCCCCc1c(C)nc(Nc2nc(C)c3cc(OC)ccc3n2)[nH]c1=O,19.7%
4,CCc1cc(=O)oc2c(C)c(OCC(=O)NCC3CCC(C(=O)O)CC3)ccc12 (centres unmarked),-5.62%
5,O=C(COC(=O)CCc1ccccc1)Nc1ccccc1OC(F)F,9.96%
6,CCCCCCn1c(N2CCCC2)nc2c1c(=O)n(C)c(=O)n2C,8.32%
7,O=c1[nH]c(=O)n(CCC2=CCCCC2)c(O)c1/C=N/Nc1cccc2ccccc12,7.35%
8,CC(=O)NC12CC3CC(C1)CC(C(=O)Nc1nc4c(C)cccc4s1)(C3)C2,1.16%
9,COc1ccc(CCNC(=O)COC(=O)Cc2cccc3ccccc23)cc1,10.5%
10,CCC1(C)NC(=O)N(CC(=O)N2N=C(c3ccccc3)CC2c2ccc(OC)cc2)C1=O (centres unmarked),-0.959%
11,S=C(NCc1ccco1)N/N=C/c1ccc(Cl)cc1,12.2%
12,Cc1ccccc1-c1ccc(=O)n(CC(=O)Nc2ccc(S(=O)(=O)N(C)C)cc2)n1,13.4%
13,O=C(CN1C(=O)c2cccc3cccc(c23)C1=O)NCCN1CCOCC1,2.96%
14,O=C(Nc1nccs1)c1cccnc1,0.456%
15,COc1ccc(S(=O)(=O)N2Cc3ccccc3CC2C(=O)O)cc1OC (centres unmarked),7.81%
16,O=C1Nc2ccccc2N=C(c2ccccc2)C1Br (centres unmarked),13.4%
17,Cn1c(=O)c2c(nc(N/N=C/c3c(O)n(C4CCCCC4)c(=S)[nH]c3=O)n2C)n(C)c1=O,16.6%
18,Cc1csc(SC(C)C(=O)Nc2ccc(S(=O)(=O)N3CCCC3)cc2)n1 (centres unmarked),-2.86%
19,Cc1cc(C)cc(NC(=O)c2cc(C)n(Cc3cccs3)c2C)c1,6.93%
20,O=C(NCc1ccco1)c1cc(S(=O)(=O)N2CCCC2)ccc1Cl,6.46%
